Drawing on the supplement of paper PMC10126150, this text covers switch fluorescence ratio for 67 sequences.

Values marked as one replicate rest on one cluster of the flow cell; about a third of the high ones do not repeat.

This series has as its system ATP. In words: switch fluorescence ratio, 500 uM ATP over buffer (Cy3 cluster intensity, sum of 5 cycles each) (fold (ratio)); higher = stronger signal-on switching upon ATP binding; sequences stand for … in TCGTCGGCAGCGTCAGATGTGTATAAGAGACAGTTTTTTTTTTTTTTTTTTTTTTTTT…TC. The following applies: aptamer strand: ATP DNA aptamer (quencher-CACCTGGGGGAGTATTGCGGAGGAAGG + anchor), 100 nM annealed; ATP concentration: 500 uM; one replicate. The procedure, abridged:
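Cy3-labelled switching-strand clusters on a modified Illumina MiSeq flow-cell were annealed to 100 nM quencher-labelled ATP aptamer, imaged in selection buffer, then imaged after 15 min with 500 uM ATP at 22 °C. Five buffer/ATP cycles ran, with NaOH stripping and re-annealing between them. The fluorescence ratio is summed target-cycle over summed buffer-cycle Cy3 intensity per cluster, averaged per switch-domain sequence. Clusters outside 100-1000 RFU were excluded.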
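Note: ATP exposure 15 min at 22 °C before imaging.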

Regarding TAAGTGGCAT, the switch fluorescence ratio came to 0.974. In the case of GGAGTACACC, the switch fluorescence ratio amounted to 1.02. The figure for GCGGCTCATA is 1.03; for ATTTAATGTA it is 1.06; for TCCCGGAATG it is 1.66. The figure for CCTTTTTTTC is 0.978. The figure for CCAGAAGTGC is 1.39. As for AGCCTTACC, the switch fluorescence ratio was found to be 1.51. With ACATATTAAA the figure was 0.954; with TGATATAATT, 1.03; with AGGGTGCAGT, 1. The figure for ACTTTTTATT is 1.02; for ACTGGTGTGC it is 1.03.

Take AAACTGCTTA: the switch fluorescence ratio is 1.03. With ATGTATG the figure was 0.959; with TGAGAAGCAC, 1.15.

Turning to CAGCGTTGA, the switch fluorescence ratio amounted to 0.988. For the sequence CAATACCGCG, the switch fluorescence ratio is 1.06.

In the case of TGCCTTGGCG, the switch fluorescence ratio worked out at 1. With CAATTTACAT the figure was 1.07. With GTGGGGATGC the figure was 1.32; with GCGCAGTCAC, 2.12; with TAAGCTCAGC, 1.04.

Regarding GCGTGCGCGC, the switch fluorescence ratio was 0.988. With ATAGGCCGTC the figure was 0.973; with AACGGACACT, 1.15. With GTTTTTCGCG the figure was 1.02; with GGGCCGGCTT, 1.02; with TAAGAGATCT, 1.02. With ATACTCGACG, the switch fluorescence ratio was 1.07. With TCCTGTGGG the figure was 0.988. In the case of TTGGCTTCGG, the switch fluorescence ratio was 1. The figure for TATCTGGAGG is 0.936. With GTTTGGACAC the figure was 1; with ATCCACAGAG, 1.08. The figure for TTGACAAGAG is 0.987. For the sequence ACACGGTCGC, the switch fluorescence ratio turned out to be 0.986. The figure for CTACGGCTGG is 0.991; for ACTAGTTCTG it is 1.02; for GTTATTTTTG it is 1.01. As for GCCTCTCTAA, the switch fluorescence ratio was 1. With GAGATCTCAG the figure was 1.02; with TTCGACCATT, 1.03. The figure for ACGCGCCTT is 0.972. With ACGCCAAGTT the figure was 1.04; with TCATATATGC, 1.03. As for TGGATGACCT, the switch fluorescence ratio amounted to 1.04.

On to CACGTAACCA, for which the switch fluorescence ratio was determined as 1.32. Consider TTACGACGGG, for which the switch fluorescence ratio worked out at 0.993. With ACTCTGAATC the figure was 1.85. With AGATGAGCTA the figure was 1. With GCTCTGGACG the figure was 1.02. With AGTGCACATG, the switch fluorescence ratio came to 0.978. With TAATGAATCA the figure was 0.955; with CGCGGTTCAT, 0.986; with ATTTAGCGC, 0.995. The figure for GGCGCAGTAG is 1.42; for GTTTGGCGTT it is 0.988; for GGGCAACGTT it is 0.976. The figure for TTGGAGGGCC is 1.01; for TGGGGGATAA it is 1.02; for CGCACGCCTG it is 1.07.

For the sequence ATTGACTAGC, the switch fluorescence ratio is 1.02. The figure for TCCACCGTGT is 1.24; for TCGTGACCCG it is 1.05. As to GTGCTGGGCC, the switch fluorescence ratio came to 1.02.

On to GCTTCTAAGA, for which the switch fluorescence ratio was determined as 1.02.
